Measurements as given in paper PMC9911399, “Two distinct binding modes provide the RNA-binding protein RbFox with extraordinary sequence specificity”.
Substitutions are numbered along the chain they refer to; changes in the protein carry UniProt numbers. The list shows a part of the results.

T1: RBFOX1 RRM (Homo sapiens, UniProt Q9NWB1 109-208)
T1 sequence: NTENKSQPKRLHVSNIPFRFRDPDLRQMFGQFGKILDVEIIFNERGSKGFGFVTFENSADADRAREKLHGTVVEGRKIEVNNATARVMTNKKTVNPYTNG

B1: UUAUAGG (DNA:RNA)
RNA: GGGAGACCGGAAUUCAGAUUGUCCUUAUAGGUUAAAUCCCGUCGUAGCCACCA
DNA 1: CAATCTGAATTCCGGTCTCCC
DNA 2: TGGTGGCTACGACGGGATT
B2: CACAGGA (DNA:RNA)
RNA: B1 RNA with U25C, U26A, A27C, U28A, A29G, G31A
DNA 1: CAATCTGAATTCCGGTCTCCC
DNA 2: TGGTGGCTACGACGGGATT
B3: UAUCGUG (DNA:RNA)
RNA: B1 RNA with U26A, A27U, U28C, A29G, G30U
DNA 1: CAATCTGAATTCCGGTCTCCC
DNA 2: TGGTGGCTACGACGGGATT
B4: AGUACGA (DNA:RNA)
RNA: B1 RNA with U25A, U26G, A27U, U28A, A29C, G31A
DNA 1: CAATCTGAATTCCGGTCTCCC
DNA 2: TGGTGGCTACGACGGGATT
B5: UUUGUUG (DNA:RNA)
RNA: B1 RNA with A27U, U28G, A29U, G30U
DNA 1: CAATCTGAATTCCGGTCTCCC
DNA 2: TGGTGGCTACGACGGGATT
B6: UGCAGGU (DNA:RNA)
RNA: B1 RNA with U26G, A27C, U28A, A29G, G31U
DNA 1: CAATCTGAATTCCGGTCTCCC
DNA 2: TGGTGGCTACGACGGGATT
B7: UUACUCC (DNA:RNA)
RNA: B1 RNA with U28C, A29U, G30C, G31C
DNA 1: CAATCTGAATTCCGGTCTCCC
DNA 2: TGGTGGCTACGACGGGATT
B8: AGUAGAG (DNA:RNA)
RNA: B1 RNA with U25A, U26G, A27U, U28A, A29G, G30A
DNA 1: CAATCTGAATTCCGGTCTCCC
DNA 2: TGGTGGCTACGACGGGATT
B9: CUGACGU (DNA:RNA)
RNA: B1 RNA with U25C, A27G, U28A, A29C, G31U
DNA 1: CAATCTGAATTCCGGTCTCCC
DNA 2: TGGTGGCTACGACGGGATT
B10: UCAUUAG (DNA:RNA)
RNA: B1 RNA with U26C, A29U, G30A
DNA 1: CAATCTGAATTCCGGTCTCCC
DNA 2: TGGTGGCTACGACGGGATT
B11: CGCGGAU (DNA:RNA)
RNA: GGGAGACCGGAAUUCAGAUUGUCCCGCGGAUUUAAAUCCCGUCGUAGCCACCA
DNA 1: CAATCTGAATTCCGGTCTCCC
DNA 2: TGGTGGCTACGACGGGATT
B12: GAAAAUG (DNA:RNA)
RNA: B1 RNA with U25G, U26A, U28A, G30U
DNA 1: CAATCTGAATTCCGGTCTCCC
DNA 2: TGGTGGCTACGACGGGATT
B13: AUCGUGG (DNA:RNA)
RNA: B1 RNA with U25A, A27C, U28G, A29U
DNA 1: CAATCTGAATTCCGGTCTCCC
DNA 2: TGGTGGCTACGACGGGATT
B14: GAUUAAU (DNA:RNA)
RNA: B11 RNA with C25G, G26A, C27U, G28U, G29A
DNA 1: CAATCTGAATTCCGGTCTCCC
DNA 2: TGGTGGCTACGACGGGATT
B15: GGAUGGG (DNA:RNA)
RNA: B1 RNA with U25G, U26G, A29G
DNA 1: CAATCTGAATTCCGGTCTCCC
DNA 2: TGGTGGCTACGACGGGATT
B16: ACAGAUA (DNA:RNA)
RNA: B1 RNA with U25A, U26C, U28G, G30U, G31A
DNA 1: CAATCTGAATTCCGGTCTCCC
DNA 2: TGGTGGCTACGACGGGATT
B17: UGGAUUA (DNA:RNA)
RNA: B11 RNA with C25U, C27G, G28A, G29U, A30U, U31A
DNA 1: CAATCTGAATTCCGGTCTCCC
DNA 2: TGGTGGCTACGACGGGATT
B18: GGAAGGU (DNA:RNA)
RNA: B11 RNA with C25G, C27A, G28A, A30G
DNA 1: CAATCTGAATTCCGGTCTCCC
DNA 2: TGGTGGCTACGACGGGATT
B19: AUGUAUG (DNA:RNA)
RNA: B1 RNA with U25A, A27G, G30U
DNA 1: CAATCTGAATTCCGGTCTCCC
DNA 2: TGGTGGCTACGACGGGATT
B20: CGCGAGU (DNA:RNA)
RNA: B11 RNA with G29A, A30G
DNA 1: CAATCTGAATTCCGGTCTCCC
DNA 2: TGGTGGCTACGACGGGATT
B21: UACUGAU (DNA:RNA)
RNA: B11 RNA with C25U, G26A, G28U
DNA 1: CAATCTGAATTCCGGTCTCCC
DNA 2: TGGTGGCTACGACGGGATT
B22: CUACCUC (DNA:RNA)
RNA: B1 RNA with U25C, U28C, A29C, G30U, G31C
DNA 1: CAATCTGAATTCCGGTCTCCC
DNA 2: TGGTGGCTACGACGGGATT
B23: UACUCAG (DNA:RNA)
RNA: B1 RNA with U26A, A27C, A29C, G30A
DNA 1: CAATCTGAATTCCGGTCTCCC
DNA 2: TGGTGGCTACGACGGGATT
B24: CGCAACG (DNA:RNA)
RNA: B11 RNA with G28A, G29A, A30C, U31G
DNA 1: CAATCTGAATTCCGGTCTCCC
DNA 2: TGGTGGCTACGACGGGATT
B25: ACGUGCA (DNA:RNA)
RNA: B11 RNA with C25A, G26C, C27G, G28U, A30C, U31A
DNA 1: CAATCTGAATTCCGGTCTCCC
DNA 2: TGGTGGCTACGACGGGATT
B26: GGCGGCG (DNA:RNA)
RNA: B11 RNA with C25G, A30C, U31G
DNA 1: CAATCTGAATTCCGGTCTCCC
DNA 2: TGGTGGCTACGACGGGATT
B27: UAUACUC (DNA:RNA)
RNA: B1 RNA with U26A, A27U, U28A, A29C, G30U, G31C
DNA 1: CAATCTGAATTCCGGTCTCCC
DNA 2: TGGTGGCTACGACGGGATT
B28: GAGCGGA (DNA:RNA)
RNA: B11 RNA with C25G, G26A, C27G, G28C, A30G, U31A
DNA 1: CAATCTGAATTCCGGTCTCCC
DNA 2: TGGTGGCTACGACGGGATT
B29: UUGAGUU (DNA:RNA)
RNA: B11 RNA with C25U, G26U, C27G, G28A, A30U
DNA 1: CAATCTGAATTCCGGTCTCCC
DNA 2: TGGTGGCTACGACGGGATT
B30: CGCUGAC (DNA:RNA)
RNA: B11 RNA with G28U, U31C
DNA 1: CAATCTGAATTCCGGTCTCCC
DNA 2: TGGTGGCTACGACGGGATT
B31: CAGCCGG (DNA:RNA)
RNA: B1 RNA with U25C, U26A, A27G, U28C, A29C
DNA 1: CAATCTGAATTCCGGTCTCCC
DNA 2: TGGTGGCTACGACGGGATT

These binders were tested against T1, RBFOX1 RRM (assay: EMSA; HiTS-Eq, 1 nM pool, 10 min; buffer printed only for the single-RNA assays: 10 mM Tris pH 7.5, 150 mM NaCl, 3.4 mM EDTA, 0.001% NP-40, 30 C). Conditions: tags: His6 N-terminal (pET28a); label: 5' 32P.
How it was run: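 Relative association constants, normalised to the cognate motif, were derived by comparing read counts of each RNA species with those of the control reaction. The RNA sequenced was the free fraction, separated by 8% native PAGE after a 10 min equilibration in 50 µL of 1 nM 5′-radiolabelled RNA (7 randomized nucleotides) with increasing concentrations of purified wild-type or mutant RbFox RRM.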
For B1, the binding signal was 0.00353 KA relative to UGCAUGU.
B2 was tested, and the binding signal was 0.00865 KA relative to UGCAUGU.
In the case of B3, the binding signal is reported as 0.0156 KA relative to UGCAUGU.
B4 was tested, and the binding signal was 0.00993 KA relative to UGCAUGU.
With B5 the binding signal was 0.0349 KA relative to UGCAUGU.
For B6, the binding signal was 0.0179 KA relative to UGCAUGU.
With B7 the binding signal was 0.00151 KA relative to UGCAUGU.
With B8 the binding signal was 0.011 KA relative to UGCAUGU.
In the case of B9, the binding signal is reported as 0.0141 KA relative to UGCAUGU.
B10 was tested, and the binding signal was 0.00799 KA relative to UGCAUGU.
For B11, the binding signal was 0.0187 KA relative to UGCAUGU.
In the case of B12, the binding signal is reported as 0.00709 KA relative to UGCAUGU.
For B13, the binding signal was 0.00886 KA relative to UGCAUGU.
For B14, the binding signal was 0.00943 KA relative to UGCAUGU.
B15 was tested, and the binding signal was 0.0169 KA relative to UGCAUGU.
In the case of B16, the binding signal is reported as 0.00499 KA relative to UGCAUGU.
B17 was tested, and the binding signal was 0.021 KA relative to UGCAUGU.
For B18, the binding signal was 0.00747 KA relative to UGCAUGU.
For B19, the binding signal was 0.012 KA relative to UGCAUGU.
With B20 the binding signal was 0.0159 KA relative to UGCAUGU.
In the case of B21, the binding signal is reported as 0.0134 KA relative to UGCAUGU.
For B22, the binding signal was 0.00201 KA relative to UGCAUGU.
For B23, the binding signal was 0.0175 KA relative to UGCAUGU.
For B24, the binding signal was 0.00999 KA relative to UGCAUGU.
With B25 the binding signal was 0.0167 KA relative to UGCAUGU.
In the case of B26, the binding signal is reported as 0.0264 KA relative to UGCAUGU.
B27 was tested, and the binding signal was 0.00278 KA relative to UGCAUGU.
In the case of B28, the binding signal is reported as 0.0138 KA relative to UGCAUGU.
B29 was tested, and the binding signal was 0.0158 KA relative to UGCAUGU.
In the case of B30, the binding signal is reported as 0.016 KA relative to UGCAUGU.
For B31, the binding signal was 0.00724 KA relative to UGCAUGU.
